The record followed here is FireProtDB (doi:10.1529/biophysj.104.051052).

The conditions of this data set: Glycine max, pH 7, GdnHCl, Fluorescence, HEPES 25 mM, CaCl2 15 mM, reversible: yes, whole UniProt chain shown.

B1: Lectin wild type, P05046 (protein)
chain: MATSKLKTQNVVVSLSLTLTLVLVLLTSKANSAETVSFSWNKFVPKQPNMILQGDAIVTSSGKLQLNKVDENGTPKPSSLGRALYSTPIHIWDKETGSVASFAASFNFTFYAPDTKRLADGLAFFLAPIDTKPQTHAGYLGLFNENESGDQVVAVEFDTFRNSWDPPNPHIGINVNSIRSIKTTSWDLANNKVAKVLITYDASTSLLVASLVYPSQRTSNILSDVVDLKTSLPEWVRIGFSAATGLDIPGESHDVLSWSFASNLPHASSNIDPLDLTSFVLHEAI
On to B1, for which the denaturant m value is 7.4 kcal/mol/M (8 °C); 6.7 kcal/mol/M (10 °C); 5.6 kcal/mol/M (15 °C); 6.5 kcal/mol/M (20 °C); 6.2 kcal/mol/M (22 °C); 6.1 kcal/mol/M (25 °C). In addition, the denaturant m value worked out at 6.3 kcal/mol/M (27 °C); 5.4 kcal/mol/M (30 °C); 5.6 kcal/mol/M (33 °C); 5.4 kcal/mol/M (40 °C); 5.4 kcal/mol/M (45 °C); 5.3 kcal/mol/M (50 °C).
